# Results taken from US11420968B2 (priority 2018, dated 2022).
# Columns and labels:
# RS4;11 cells = test: cells; settings: Homo sapiens, RS4-11, 48 h, read-out: Cellular activity (IC50, nM) RS4; 11
# Molt-4 cells = test: cells; settings: Homo sapiens, MOLT-4, read-out: Cellular activity (IC50, nM) Molt-4
Structure (SMILES),IC50 (RS4;11 cells) [nM],IC50 (Molt-4 cells) [nM]
"O=C(NS(=O)(=O)c1ccc(NCC2CN(C3COC3)CCO2)c([N+](=O)[O-])c1)c1ccc(C2=CCC(N3CCCC3c3ccccc3C3CC3)CC2)cc1Oc1cnc2[nH]ccc2c1 (stereo not shown) [Example G11, 3-((1H-pyrrolo[2,3-b]pyridin-5-yl)oxy)-4′-(2-(2-cyclopropylphenyl)pyrrolidin-1-yl)-N-((3-nitro-4-(((4-(oxetan-3-yl)morpholin-2-yl)methyl)amino)phenyl)sulfonyl)-2′,3′,4′,5′-tetrahydro-[1,1′-biphenyl]-4-carboxamide]",40,> 10000
"O=C(NS(=O)(=O)c1ccc(OCC2CCC3(CC2)COC3)c([N+](=O)[O-])c1)c1ccc(C2=CCC(N3CCCC3c3ccccc3C3CC3)CC2)cc1Oc1cnc2[nH]ccc2c1 (stereo not shown) [Example G12, 3-((1H-pyrrolo[2,3-b]pyridin-5-yl)oxy)-N-((4-((2-oxaspiro[3.5]nonan-7-yl)methoxy)-3-nitrophenyl)sulfonyl)-4′-(2-(2-cyclopropylphenyl)pyrrolidin-1-yl)-2′,3′,4′,5′-tetrahydro-[1,1′-biphenyl]-4-carboxamide]",51,> 10000
"O=C(NS(=O)(=O)c1ccc(N[C@H]2CC[C@H](N(CC3CC3)CC3CC3)CC2)c([N+](=O)[O-])c1)c1ccc(C2=CCC(N3CCCC3c3ccccc3C3CC3)CC2)cc1Oc1cnc2[nH]ccc2c1 (stereo partly shown) [Example G13, 3-((1H-pyrrolo[2,3-b]pyridin-5-yl)oxy)-N-((4-(((1r,4r)-4-(bis(cyclopropylmethyl)amino)cyclohexyl)amino)-3-nitrophenyl)sulfonyl)-4′-(2-(2-cyclopropylphenyl)pyrrolidin-1-yl)-2′,3′,4′,5′-tetrahydro-[1,1′-biphenyl]-4-carboxamide]",72,> 10000
"O=C(NS(=O)(=O)c1ccc(NCC2CN(C3CC3)CCO2)c([N+](=O)[O-])c1)c1ccc(C2=CCC(N3CCCC3c3ccccc3C3CC3)CC2)cc1Oc1cnc2[nH]ccc2c1 (stereo not shown) [Example G16, 3-((1H-pyrrolo[2,3-b]pyridin-5-yl)oxy)-N-((4-(((4-cyclopropylmorpholin-2-yl)methyl)amino)-3-nitrophenyl)sulfonyl)-4′-(2-(2-cyclopropylphenyl)pyrrolidin-1-yl)-2′,3′,4′,5′-tetrahydro-[1,1′-biphenyl]-4-carboxamide]",280,> 10000
"CN(C)CC(=O)N1CCOC(CNc2ccc(S(=O)(=O)NC(=O)c3ccc(C4=CCC(N5CCCC5c5ccccc5C5CC5)CC4)cc3Oc3cnc4[nH]ccc4c3)cc2[N+](=O)[O-])C1 (stereo not shown) [Example G18, 3-((1H-pyrrolo[2,3-b]pyridin-5-yl)oxy)-4′-(2-(2-cyclopropylphenyl)pyrrolidin-1-yl)-N-((4-(((4-(dimethylglycyl)morpholin-2-yl)methyl)amino)-3-nitrophenyl)sulfonyl)-2′,3′,4′,5′-tetrahydro-[1,1′-biphenyl]-4-carboxamide]",39,> 10000
"O=C(NS(=O)(=O)c1ccc(OCC2CCOCC2)c([N+](=O)[O-])c1)c1ccc(C2=CCC(N3CCCC3c3ccccc3C3CC3)CC2)cc1Oc1cnc2[nH]ccc2c1 (stereo not shown) [Example G20, 3-((1H-pyrrolo[2,3-b]pyridin-5-yl)oxy)-4′-(2-(2-cyclopropylphenyl)pyrrolidin-1-yl)-N-((3-nitro-4-((tetrahydro-2H -pyran-4-yl)methoxy)phenyl)sulfonyl)-2′,3′,4′,5′-tetrahydro-[1,1′-biphenyl]-4-carboxamide]",53,> 10000
"O=C(NS(=O)(=O)c1ccc(NCC2CNCCO2)c([N+](=O)[O-])c1)c1ccc(C2=CCC(N3CCCC3c3ccccc3C3CC3)CC2)cc1Oc1cnc2[nH]ccc2c1 (stereo not shown) [Example G27, 3-((1H-pyrrolo[2,3-b]pyridin-5-yl)oxy)-4′-(2-(2-cyclopropylphenyl)pyrrolidin-1-yl)-N-((4-((morpholin-2-ylmethyl)amino)-3-nitrophenyl)sulfonyl)-2′,3′,4′,5′-tetrahydro-[1,1′-biphenyl]-4-carboxamide]",118,> 10000
"CC(=O)N1CCOC(CNc2ccc(S(=O)(=O)NC(=O)c3ccc(C4=CCC(N5CCCC5c5ccccc5C5CC5)CC4)cc3Oc3cnc4[nH]ccc4c3)cc2[N+](=O)[O-])C1 (stereo not shown) [Example G32, 3-((1H-pyrrolo[2,3-b]pyridin-5-yl)oxy)-N-((4-(((4-acetylmorpholin-2-yl)methyl)amino)-3-nitrophenyl)sulfonyl)-4′-(2-(2-cyclopropylphenyl)pyrrolidin-1-yl)-2′,3′,4′,5′-tetrahydro-[1,1′-biphenyl]-4-carboxamide]",123,> 10000
"O=C(NS(=O)(=O)c1ccc(OCC2(F)CCN(C3COC3)CC2)c([N+](=O)[O-])c1)c1ccc(C2=CCC(N3CCC[C@H]3c3ccccc3C3CC3)CC2)cc1Oc1cnc2[nH]ccc2c1 (stereo partly drawn) [Example G35-S, 3-((1H-pyrrolo[2,3-b]pyridin-5-yl)oxy)-4′-((S)-2-(2-cyclopropylphenyl)pyrrolidin-1-yl)-N-((4-((4-fluoro-1 (oxetan-3-yl)piperidin-4-yl)methoxy)-3-nitrophenyl)sulfonyl)-2′,3′,4′,5′-tetrahydro-[1,1′-biphenyl]-4-carboxamide]",14,5190
"O=C(NS(=O)(=O)c1ccc(OCC2(F)CCN(C3CCOCC3)CC2)c([N+](=O)[O-])c1)c1ccc(C2=CCC(N3CCCC3c3ccccc3C3CC3)CC2)cc1Oc1cnc2[nH]ccc2c1 (stereo not shown) [Example G36, 3-((1H-pyrrolo[2,3-b]pyridin-5-yl)oxy)-4′-(2-(2-cyclopropylphenyl)pyrrolidin-1-yl)-N-((4-((4-fluoro-1-(tetrahydro-2H-pyran-4-yl)piperidin-4-yl)methoxy)-3-nitrophenyl)sulfonyl)-2′,3′,4′,5′-tetrahydro-[1,1′-biphenyl]-4-carboxamide]",41,474
"O=C(NS(=O)(=O)c1ccc(NC[C@H]2CCN(C3COC3)C2)c([N+](=O)[O-])c1)c1ccc(C2=CCC(N3CCCC3c3ccccc3C3CC3)CC2)cc1Oc1cnc2[nH]ccc2c1 (stereo partly drawn) [Example G37, 3-((1H-pyrrolo[2,3-b]pyridin-5-yl)oxy)-4′-(2-(2-cyclopropylphenyl)pyrrolidin-1-yl)-N-((3-nitro-4-((((R)-1-(oxetan-3-yl)pyrrolidin-3-yl)methyl)amino)phenyl)sulfonyl)-2′,3′,4′,5′-tetrahydro-[1,1′-biphenyl]-4-carboxamide]",103,6630
"O=C(NS(=O)(=O)c1ccc(NC[C@@H]2CCN(C3COC3)C2)c([N+](=O)[O-])c1)c1ccc(C2=CCC(N3CCCC3c3ccccc3C3CC3)CC2)cc1Oc1cnc2[nH]ccc2c1 (stereo partly drawn) [Example G39, 3-((1H-pyrrolo[2,3-b]pyridin-5-yl)oxy)-4′-(2-(2-cyclopropylphenyl)pyrrolidin-1-yl)-N-((3-nitro-4-((((S)-1-(oxetan-3-yl)pyrrolidin-3-yl)methyl)amino)phenyl)sulfonyl)-2′,3′,4′,5′-tetrahydro-[1,1′-biphenyl]-4-carboxamide]",116,6260
"O=C(NS(=O)(=O)c1ccc(N[C@@H]2CCN(C(CF)CF)C2)c([N+](=O)[O-])c1)c1ccc(C2=CCC(N3CCCC3c3ccccc3C3CC3)CC2)cc1Oc1cnc2[nH]ccc2c1 (stereo partly drawn) [Example G64, 3-((1H-pyrrolo[2,3-b]pyridin-5-yl)oxy)-4′-(2-(2-cyclopropylphenyl)pyrrolidin-1-yl)-N-((4-(((R)-1-(1,3-difluoropropan-2-yl)pyrrolidin-3-yl)amino)-3-nitrophenyl)sulfonyl)-2′,3′,4′,5′-tetrahydro-[1,1′-biphenyl]-4-carboxamide]",70,3740
"O=C(NS(=O)(=O)c1ccc(OCC2CCC(O)CC2)c([N+](=O)[O-])c1)c1ccc(C2=CCC(N3CCC[C@H]3c3ccccc3C3CC3)CC2)cc1Oc1cnc2[nH]ccc2c1 (stereo partly drawn) [Example G81a, (cis- or trans-) 3-((1H-pyrrolo[2,3-b]pyridin-5-yl)oxy)-4′-((S)-2-(2-cyclopropylphenyl)pyrrolidin-1-yl)-N-((4-((4-hydroxycyclohexyl)methoxy)-3-nitrophenyl)sulfonyl)-2′,3′,4′,5′-tetrahydro-[1,1′-biphenyl]-4-carboxamide]",49,5490
"O=C(NS(=O)(=O)c1ccc(NC(=O)N2CCOCC2)c([N+](=O)[O-])c1)c1ccc(C2=CCC(N3CCCC3c3ccccc3C3CC3)CC2)cc1Oc1cnc2[nH]ccc2c1 (stereo not shown) [Example G84, N-(4-(N-(3-((1H-pyrrolo[2,3-b]pyridin-5-yl)oxy)-4′-(2-(2-cyclopropylphenyl)pyrrolidin-1-yl)-2′,3′,4′,5′-tetrahydro-[1,1′-biphenyl]-4-carbonyl)sulfamoyl)-2-nitrophenyl)morpholine-4-carboxamide]",117,7310
"CC(C)c1ccccc1[C@@H]1CCCN1c1ccc(-c2ccc(C(=O)NS(=O)(=O)c3ccc(NCC4(F)CCOCC4)c([N+](=O)[O-])c3)c(Oc3cnc4[nH]ccc4c3)c2)cc1 [Example G85-S, (S)-3-((1H-pyrrolo[2,3-b]pyridin-5-yl)oxy)-N-((4-(((4-fluorotetrahydro-2H-pyran-4-yl)methyl)amino)-3-nitrophenyl)sulfonyl)-4′-(2-(2-isopropylphenyl)pyrrolidin-1-yl)-[1,1′-biphenyl]-4-carboxamide]",103,4080
"COCC1CCC(CNc2ccc(S(=O)(=O)NC(=O)c3ccc(C4=CCC(N5CCCC5c5ccccc5C5CC5)CC4)cc3Oc3cnc4[nH]ccc4c3)cc2[N+](=O)[O-])CC1 (stereo not shown) [Example G86, 3-((1H-pyrrolo[2,3-b]pyridin-5-yl)oxy)-4′-(2-(2-cyclopropylphenyl)pyrrolidin-1-yl)-N-((4-(((4-(methoxymethyl)cyclohexyl)methyl)amino)-3-nitrophenyl)sulfonyl)-2′,3′,4′,5′-tetrahydro-[1,1′-biphenyl]-4-carboxamide]",254,9760
